From PubChem BioAssay AID651820 (National Center for Advancing Translational Sciences (NCATS), 2012)
Hit rate of the full screen: of about 340,000 compounds, about 12,000 (3.5%) were called active. This list was built around the results that the source calls inconclusive (neither active nor inactive); the mix of calls is not that of the screen. Calls come from the whole dose curve; as a rule, active = well fitted inhibition curve with a large enough effect; inconclusive = small, poorly fitted or top-dose-only effect, or another doubt; inactive = no such curve, though single readings can be large or run the other way. Potencies of inconclusive entries are left out as doubtful fits.

Assay: qHTS Assay for Inhibitors of Hepatitis C Virus (HCV)
Settings: Huh7.5.1 HCVcc-Cre (HCVcc is cell-culture hepatitis C virus) infection, luciferase reporter, 44 h; activity change, negative = inhibition: at 41.8 µM (top of the series) unless noted
Outline: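 Antiviral activity was scored by luciferase reporter output from cells infected with HCVcc-Cre (~0.5 moi) in presence of compound, 44 h infection period, cells seeded 1,000/well 4 h prior.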
% is set by controls: 0 for no effect and ±100 for the full control effect; potency is the fitted concentration of half-maximal effect; tags give direction and shape of the fitted curve.

SMILES | Potency | activity change, negative = inhibition
Cc1ccc2c(c1)c(N=O)c(O)n2Cc1ccc(Cl)cc1 | inactive | –
COc1cc(C(=O)Nc2nc(OC)c(-c3ccccc3)c(OC)n2)cc(OC)c1OC | inconclusive [inhibitor, full curve] | –
C=CCN(c1ccccc1)S(=O)(=O)c1cccc(C(=O)Nc2ccc(N3CCOCC3)cc2)c1 | active: 7.08 µM | –
COc1ccc(OC)c(Nc2c3ccccc3nc3ccccc23)c1 | inconclusive [inhibitor, single point] | –
COc1cc(/C=N/N=C(N)N)ccc1OCc1ccc(Cl)cc1 | active: 12.6 µM | –
O=C(c1ccc(S(=O)(=O)Cc2ccccc2F)c([N+](=O)[O-])c1)N1CCCCCC1 | inconclusive [inhibitor, single point] | –
Cc1cc(C)c2c(c1)NC(c1cc3c(cc1Br)OCO3)C1CC=CC21 (stereo not given) | inconclusive [inhibitor, single point] | –
Cc1cc(C(F)F)n2ncc(C(=O)NCCc3ccccc3Cl)c2n1 | inconclusive [inhibitor, partial curve] | –
CC(C)n1cnc2c(NCc3ccccc3)cc(OCC3CCN(C)CC3)cc21 | inconclusive [inhibitor, single point] | –
O=c1c2c3c(sc2nc2n1CCCCC2)CCCCC3 | inactive | –
CC(C)C[C@H]1CN([C@@H](Cc2ccc(O)cc2)CN2CCC[C@@H]2CN2C(=O)C(=O)NC[C@@H]2Cc2ccccc2)C(=O)C(=O)N1CC1CCCCCC1 | inconclusive [inhibitor, single point] | –
CCOC(=O)C1=C(C)N=C2SC(C(=O)OC)=CC(=O)N2C1c1cc(OC)c(OC)c(OC)c1 (stereo not given) | inactive | –
O=C(Nc1cccc([N+](=O)[O-])c1)Nc1cccc([N+](=O)[O-])c1 | inconclusive [inhibitor, single point] | –
O=C(Nc1ccc2c(c1)OCCO2)c1ccc(Cl)c([N+](=O)[O-])c1 | inconclusive [inhibitor, single point] | –
COc1ccc(C(CNc2nc(-c3cccnc3)nc3ccccc23)N(C)C)cc1 (stereo not given) | inconclusive [inhibitor, partial curve] | –
Cc1ccc(NS(=O)(=O)c2ccc(C(=O)NCc3cccnc3)cc2)cc1 | inconclusive [inhibitor, single point] | –
COc1ccccc1/C=C1\SC(=S)N(CCC(=O)N2CCN(C)CC2)C1=O | inactive | –
CCN(CC)c1ccc(/C=N/NC(=O)c2ccc3nc[nH]c3c2)cc1 | inactive | –
CC1(C)Cc2c(cnn2-c2ccccc2)-c2c1c1ccccc1n2CC(O)CCl (stereo not given) | inconclusive [inhibitor, single point] | –
CCC(Sc1nc2cc3c(cc2c(=O)n1Cc1ccco1)OCO3)C(=O)Nc1ccccc1OC (stereo not given) | inconclusive [inhibitor, partial curve] | –
O=C(NCc1ccccn1)c1ccc(Cl)c(S(=O)(=O)N2CCCCCC2)c1 | active: 11.2 µM | –
CCOC(=O)C1(Cc2cccc(F)c2)CCN(C(=O)COC)CC1 | inactive | –
CC1(C)N=C(N)N=C(N)N1c1ccc(OCCCOc2ccccc2)c(Cl)c1 | inconclusive [inhibitor, single point] | –
CCNC(=S)N=Nc1c(O)n(Cc2ccc(Cl)cc2)c2ccccc12 | inconclusive [inhibitor, partial curve] | –

SMILES | Potency | activity change, negative = inhibition
COc1cc(SC)ccc1C(=O)Nc1ccc2c(c1)CCN2S(C)(=O)=O | inconclusive [inhibitor, full curve, poor fit] | –
CCN(CC)c1ccc(C(=O)NNC(=O)CNC(=O)c2ccco2)cc1 | inactive | –
NS(=O)(=O)c1ccc(N=Cc2c(O)n(-c3nccs3)c(=O)c3ccccc23)cc1 | inactive | –
COC(=O)CC1(c2cccc3ccccc23)C(=O)c2ccccc2C1=O | inconclusive [inhibitor, single point] | –
CCN1/C(=C\c2ccc3ccccc3[n+]2CC)Sc2cc(C)ccc21 | inconclusive [inhibitor, partial curve, poor fit] | –
COc1ccc(C(=O)N/N=C\c2ccc(OC)c(COc3ccccc3Br)c2)c(OC)c1 | active: 17.8 µM | –
CC[n+]1oc(-c2ccccc2)cc1C | inactive | –
COc1cc2sc(-c3ccccc3OC)c(-c3ccc(OCCN4CCCCC4)cc3)c2cc1OC | active: 11.2 µM | –
N#Cc1ccccc1S(=O)(=O)c1ccccc1C(=O)Nc1ccccc1 | inconclusive [inhibitor, single point] | –
Cc1nc(N2CCN(C(=O)c3ccco3)CC2)c(C#N)c2c1CCCC2 | inconclusive [inhibitor, single point] | –
O=C(CSc1nnc(-c2ccccc2Cl)n1Cc1ccco1)Nc1ccc2c(c1)OCCO2 | inactive | –
COc1cccc(N/N=C/c2cccc(Br)c2O)c1 | inconclusive [inhibitor, single point] | –
O=C(NCCCN1CCC(Cc2ccccc2)CC1)c1ccc2nc(N3CCOCC3)sc2c1 | active: 10 µM | –
COc1ccc(C(=O)/C=C/Sc2nc3ccccc3o2)cc1 | inconclusive [inhibitor, single point] | –
CCOc1cccc(OCCCCn2ccnc2)c1 | inconclusive [inhibitor, partial curve] | –
Cc1ccccc1-n1nc2c(c1NC(=O)C(C)(C)C)CS(=O)(=O)C2 | inactive | –
O=C(O)CN1CCN(Cc2ccc(Cl)cc2)C1=O | – | inactive: -11.8% [at 0.335 µM]
Cc1cccc(C2=NN(c3ccc(Br)cc3)[C@@H](C(=O)N3CCOC3=O)[C@@H]2C)c1 | inconclusive [inhibitor, single point] | –
O=C(CCn1c(=O)oc2cc(Cl)ccc21)Nc1ccc(O)cc1 | inactive | –
Cc1ccc(CNC(=O)/C=C/c2ccc(S(=O)(=O)NCc3ccco3)cc2)cc1 | inconclusive [inhibitor, single point] | –
CCN(CC)CCNC(=O)c1ccc(NC(=O)c2ccc(Cl)c(S(=O)(=O)N3CCCCCC3)c2)cc1 | active: 14.1 µM | –
COc1ccc(C(C(=O)NC2CCCC2)N(Cc2ccccc2)C(=O)c2nsc(Cl)c2Cl)cc1 (stereo not given) | inconclusive [inhibitor, single point] | –
O=C(Nc1ccc(S(=O)(=O)N2CCCCC2)cc1)c1ccccc1Cl | inconclusive [inhibitor, single point] | –
CC[C@]12c3[nH]c4ccccc4c3CCN1C(=O)C(CC(=O)NC/C=C(\C)CCC=C(C)C)C[C@@H]2C(=O)N1CCN(C(=O)c2ccco2)CC1 (stereo not given in full) | inconclusive [inhibitor, single point] | –

SMILES | Potency | activity change, negative = inhibition
CC(C)(C)NC(=O)c1cc(C(C)(C)C)c(O)c(C(C)(C)C)c1 | inactive | –
O=[N+]([O-])c1nn(-c2ccc(Cl)cc2)n(O)c1=NCc1cccnc1 | inconclusive [inhibitor, single point] | –
CCCCOc1ccc(C(=O)NCC(=O)N2CCN(C(=O)c3ccco3)CC2)cc1 | inactive | –
CCCOC(=O)c1c(N)n(Cc2cccs2)c2nc3ccccc3nc12 | inconclusive [inhibitor, single point] | –
Cc1snc(SCc2ccc(Cl)cc2)c1C#N | inactive | –
CCOC(=O)Cn1c(CN(C)Cc2ccccc2)nc2c1c(=O)n(C)c(=O)n2C | inconclusive [inhibitor, single point] | –
CCCc1nc2c(C)ccc(C)c2c(N)c1CC | inconclusive [inhibitor, single point] | –
Cc1cccn2c(=O)nc(SCC(=O)N3N=C(c4cccs4)CC3c3ccc(F)cc3)nc12 (stereo not given) | inconclusive [inhibitor, partial curve, poor fit] | –
Cc1ccc(S(=O)(=O)NCC(=O)OCC(=O)N2CC(C)OC(C)C2)cc1 (stereo not given) | inactive | –
COc1cc2sc(-c3ccccc3OC)c(-c3ccc(O)cc3)c2cc1OC | active: 11.2 µM | –
CC(C)C[C@H]1CN([C@@H](CC(C)C)CN2CCCC2CN2C(=S)NC[C@@H]2Cc2ccc(O)cc2)C(=S)N1CCc1ccccc1 (stereo not given in full) | inconclusive [inhibitor, single point] | –
C=CCNC(=O)CN1CCC(n2c(C)nc3cc(C(F)(F)F)ccc32)CC1 | inactive | –
COc1ccc(CCC2(C)NC(=O)N(C(C)C(=O)N3c4ccccc4CC3C)C2=O)cc1 (stereo not given) | inactive | –
O=C(O)C1CC=CCC1C(=O)N1CCN(c2nc(-c3ccccc3)c3ccccc3n2)CC1 (stereo not given) | inconclusive [inhibitor, single point] | –
Cn1cc(/C=C2/SC(=O)N(CC(=O)Nc3ccc4c(c3)OCO4)C2=O)c2ccccc21 | inconclusive [inhibitor, single point] | –
C=CCn1c(=O)c(C(=O)Nc2ccccc2C)c(O)c2ccccc21 | inactive | –
COc1ccccc1CNCC(O)(c1ccc(Cl)cc1)c1ccc(Cl)cc1 | inconclusive [inhibitor, single point] | –
CCOC(=O)c1ccc(NC(=O)CSc2nnc(CCc3ccc(C)o3)n2-c2ccccc2)cc1 | active: 10 µM | –
COCCCn1c(C)nnc1SCC(=O)Nc1cccc(C)c1 | inactive | –
CCS(=O)(=O)N1CCC(NC(=O)C(Cc2cccc(OC)c2OC)NC(C)=O)CC1 (stereo not given) | inactive | –
O=C(O)c1cccc(NC(=S)NC(NC(=O)c2cccc([N+](=O)[O-])c2)C(Cl)(Cl)Cl)c1 (stereo not given) | inactive | –
O=C(c1ccccc1)c1ccc2nc(N3CCCCC3)c3nncn3c2c1 | inconclusive [inhibitor, single point] | –
